Here are results for 42 compounds from ChEMBL document CHEMBL5308541, “MAIP: An Open-Source Tool to Enrich High-Throughput Screening Output and Identify Novel, Druglike Molecules with Antimalarial Activity” (ACS Med Chem Lett, 2023).

SMILES strings stand for the structures. About 540 (0.36%) of roughly 150,000 compounds showed an effect of 50% or more. This is one part of the list.

The test system of the experiment is Plasmodium falciparum. Description: Primary screen in NF54 nanoGlo assay, in single point, at 2uM, 72h; a lower Z score goes with more inhibition. Format: functional, Erythrocyte. The note with it: timepoint 72 hour.
By % Inhibition is commonly meant the relative decrease from the control value, in per cent. As to `Fc1ccc(Nc2cc(-c3ccccc3)ncn2)c(F)c1`, the “% Inhibition” value was 6% and the Z score is listed as -0.97.

Take `COc1cc2ccc1Oc1cc(F)cc(c1)CNC(=O)CCCN(c1ccnc(N)n1)CCCNC2=O`: the “% Inhibition” value amounted to 8% and the Z score is given as -1.47.

As to `CC(C)=CCNC(=O)c1conc1C1CN(C(=O)OC(C)(C)C)C1`, the “% Inhibition” value was -9% and the Z score is 1.31.

On to `O=C(Nc1cccc(-c2cc[nH]n2)c1)N1CC2(CCOCC2)C1`, for which the “% Inhibition” value was -10% and the Z score is listed as 1.8.

For `COCCN1CCC(CNc2nc(C)nc(C)c2C)CC1`, the “% Inhibition” value was -12% and the Z score turned out to be 2.11.

As to `CN(C)S(=O)(=O)NC1CCN([C@H]2CCS(=O)(=O)C2)CC1`, the “% Inhibition” value is reported as 14% and the Z score is reported as -2.49.

As to `Cc1noc(-c2ccnc(NCCNC(=O)CC3CCCCC3)c2)n1`, the “% Inhibition” value amounted to 1% and the Z score is on record as -0.09.

Consider `CN(C)c1nc(NC2CC(C)(C)NC(C)(C)C2)cc(C2CC(N)C2)n1` (centres undefined), for which the “% Inhibition” value came to 14% and the Z score is recorded as -3.11.

As to `COc1cc(CCNC2CCN(C(C)C)CC2)ccc1F`, the “% Inhibition” value amounted to 8% and the Z score is -1.37.

As to `Cc1cc(N2CCC(Nc3ncccn3)C(O)C2)c2cc3c(cc2n1)OCO3` (centres undefined), the “% Inhibition” value is -13% and the Z score turned out to be 2.23.

Take `N#Cc1ccc(-c2ccc(C(=O)NCCN3CCNCC3)cc2)cc1Cl`: the “% Inhibition” value is on record as 8% and the Z score is listed as -1.53.

Regarding `CN1CCC[C@H](Nc2nccc(N(C)C)n2)C1`, the “% Inhibition” value is recorded as -9% and the Z score was 1.51.

As to `O=C(CCc1ccc(Cl)c(F)c1)N1CCNC[C@H]1C(F)F`, the “% Inhibition” value was found to be 12% and the Z score is -2.17.

Take `c1cc(Cn2cncn2)cc(Nc2ncnc3[nH]ncc23)c1`: the “% Inhibition” value is on record as -3% and the Z score stood at 0.39.

Take `O=C1Nc2ccccc2NC12CCN(C1CCN(C3CCCC3)CC1)CC2`: the “% Inhibition” value is -8% and the Z score is 1.34.

In the case of `CC[C@H](C)N(C)CCN=C(N)Nc1ccc(F)cc1`, the “% Inhibition” value is given as 14% and the Z score is -3.04.

`OC1CCN(Cc2ccc(CNC3CCN4CCCC4C3)cc2)CC1` (centres undefined): the “% Inhibition” value worked out at 15% and the Z score is -3.34.

In the case of `O=C(c1cc(COc2cncc(Cl)c2)on1)N1CC(N2CCCCC2)C1`, the “% Inhibition” value is listed as -3% and the Z score came to 0.48.

As to `Cc1nnc(NC2CC3CC3C2)nc1C` (centres undefined), the “% Inhibition” value is reported as -2% and the Z score is 0.41.

For `Cn1c(NCc2cc(F)cc3cccnc23)nc2ccc(C#N)cc21`, the “% Inhibition” value was -25% and the Z score is recorded as 4.37.

With `CN(C)[C@H]1CCN(c2ccnc3cnccc23)C1`, the “% Inhibition” value is -1% and the Z score was 0.15.

With `CN1CCN(C(=O)[C@H]2CCCN(C3CCN(c4noc(C5CC5)n4)CC3)C2)CC1`, the “% Inhibition” value came out at 2% and the Z score is -0.39.

For the compound `CCc1cc(N[C@H]2CCN(Cc3cc(OC)cc(OC)c3)C2)nc(C)n1`, the “% Inhibition” value worked out at 9% and the Z score is given as -1.79.

With `NS(=O)(=O)N1CCN(C(=O)NCc2noc(-c3ccccc3)n2)CC1`, the “% Inhibition” value is recorded as -2% and the Z score is given as 0.35.

For `O=C(N1CCC(CNc2ncnc3[nH]ncc23)CC1)C(F)(F)F`, the “% Inhibition” value is -6% and the Z score is 1.03.

Regarding `O=C(Cc1cccc(C(F)(F)F)n1)N1CCn2ncnc2C1`, the “% Inhibition” value is listed as -9% and the Z score turned out to be 1.89.

Regarding `CN1CCN(Cc2cccc(C(=O)NC3CCN([C@H]4CCOC4)CC3)c2)CC1`, the “% Inhibition” value is -4% and the Z score is given as 0.6.

`Cc1cccc(N2CCC(NS(=O)(=O)c3cnc4onc(-c5ccccc5)c4c3)CC2)n1`: the “% Inhibition” value was -2% and the Z score came out at 0.34.

`COCCCn1ccc(Nc2ncnc3cccc(F)c23)n1`: the “% Inhibition” value is reported as -7% and the Z score came out at 1.33.

As for `CN(Cc1ccc2ncccc2c1)C(=O)[C@@H](N)CCCNC(N)=O`, the “% Inhibition” value is listed as 3% and the Z score was -0.72.

For `O=C(NC1CCN(Cc2ccncc2)CC1)c1ccnc(OCC(F)F)c1`, the “% Inhibition” value is recorded as 3% and the Z score was -0.55.

As for `CN(CCN1CCOC2CCCCC21)CCN1CCOC2CCCCC21` (centres undefined), the “% Inhibition” value is given as -16% and the Z score stood at 3.55.

For `CC(C)OCC(=O)Nc1cc(Cl)ccc1C(=O)[C@H]1CCOC1`, the “% Inhibition” value is -2% and the Z score is recorded as 0.42.

Consider `Cc1ccc2nc(-c3ccccc3)c(CN(C)C3CCN(C)CC3)c(O)c2c1`, for which the “% Inhibition” value is -1% and the Z score turned out to be 0.1.

For `O=C1c2ccccc2-c2c[nH]c3c(Oc4ccccc4)c(N4CCOCC4)c(O)c1c23`, the “% Inhibition” value was found to be 4% and the Z score is -0.67.

On to `COc1ccc(-c2ccc(C(=O)N3CCN(CCN(C)C)CC3)cc2)cn1`, for which the “% Inhibition” value amounted to 4% and the Z score is on record as -0.75.

Take `Cc1ccc(OC2CCN(Cc3ccc(-n4ccnc4)nc3)CC2)nc1`: the “% Inhibition” value is recorded as -4% and the Z score is reported as 0.64.

As for `O=C(C1CN2CCCN1CC2)N1CCC(c2nccc(-c3cncnc3)n2)CC1` (centres undefined), the “% Inhibition” value came to 3% and the Z score was -0.48.

In the case of `COc1cccc(F)c1CN(CCO)Cc1nc[nH]c1C`, the “% Inhibition” value is listed as 3% and the Z score is listed as -0.46.

`O=C(NC1CCN(Cc2ccccc2)CC1)C1CN(c2cc(-c3ccccc3)ncn2)C1`: the “% Inhibition” value is -2% and the Z score is 0.41.

`COc1ccc2[nH]cc(C3CCN(c4ncnc5[nH]ncc45)CC3)c2c1`: the “% Inhibition” value is -5% and the Z score amounted to 0.89.

In the case of `OC[C@H]1CCCN1Cc1ccccc1CNc1ncnc2[nH]ccc12`, the “% Inhibition” value is -1% and the Z score stood at 0.18.
